Data reported in the supplement of paper PMC4604168 (melanoma cell lines).
This is one part of the list. Many values rest on one well or one pass, so single values are uncertain.

Tests used:
Assay in all cases: cell count relative to DMSO control; melanoma cells; higher = more viable cells
Conditions in all cases: library dose: low library concentration; 72 h
WM115 = system: WM115
WM1716 = system: WM1716
WM1745 = system: WM1745
WM3526 = system: WM3526
WM3619 = system: WM3619
WM451Lu = system: WM451Lu
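Also: cell number obtained by counting DAPI-stained nuclei in high-throughput microscope images with image analysis software, screen run in 1,536-well plates.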

| SMILES | cell count (WM115) [%] | cell count (WM1716) [%] | cell count (WM1745) [%] | cell count (WM3526) [%] | cell count (WM3619) [%] | cell count (WM451Lu) [%] |
| --- | --- | --- | --- | --- | --- | --- |
| C=C(c1ccc(C(=O)O)cc1)c1cc2c(cc1C)C(C)(C)CCC2(C)C [Bexarotene] + C/C(O)=C(\C#N)C(=O)Nc1cc(Br)ccc1Br [LFM-A13] (first compound 2 µM, partner dose 2 µM) | 101 | 80.1 | 93.7 | 66.5 | 88 | 74.2 |
| C=CCNC1=C2C[C@@H](C)C[C@H](OC)[C@H](O)[C@@H](C)/C=C(\C)[C@H](OC(N)=O)[C@@H](OC)/C=C\C=C(/C)C(=O)NC(=CC1=O)C2=O [Tanespimycin] + C/C(O)=C(\C#N)C(=O)Nc1cc(Br)ccc1Br [LFM-A13] (first compound 0.002 µM, partner dose 2 µM) | 98.3 | 82.3 | 105 | 91.9 | 93.5 | 105 |
| Cn1cncc1[C@@](N)(c1ccc(Cl)cc1)c1ccc2c(c1)c(-c1cccc(Cl)c1)cc(=O)n2C [tipifarnib] + O=C(Oc1ccc([N+](=O)[O-])cc1)N1CCC(C(O)(c2ccc3c(c2)OCO3)c2ccc3c(c2)OCO3)CC1 [JZL184] (first compound 0.01 µM, partner dose 1 µM) | 74 | 64.4 | 83 | 90.5 | 115 | 72.8 |
| N#Cc1c(O)c2c(-c3ccc(-c4ccccc4O)cc3)csc2[nH]c1=O + C/C(O)=C(\C#N)C(=O)Nc1cc(Br)ccc1Br [LFM-A13] (first compound 2 µM, partner dose 2 µM) | 85.8 | 109 | 95.5 | 81.5 | 87.9 | 87.8 |
| OCCn1cc(-c2cnc3nnn(Cc4ccc5ncccc5c4)c3n2)cn1 + C/C(O)=C(\C#N)C(=O)Nc1cc(Br)ccc1Br [LFM-A13] (first compound 1 µM, partner dose 2 µM) | 97.2 | 102 | 94.4 | 91.3 | 88.4 | 107 |
| CCCS(=O)(=O)Nc1ccc(F)c(C(=O)c2c[nH]c3ncc(Cl)cc23)c1F + C[As](C)SC[C@H](NC(=O)CC[C@H](N)C(=O)O)C(=O)NCC(=O)O [Darinaparsin] (first compound 0.08 µM, partner dose 0.4 µM) | 96.6 | 109 | 106 | 79.6 | 90.9 | 111 |
| CN(c1ncccc1CNc1nc(Nc2ccc3c(c2)CC(=O)N3)ncc1C(F)(F)F)S(C)(=O)=O + O=C(Oc1ccc([N+](=O)[O-])cc1)N1CCC(C(O)(c2ccc3c(c2)OCO3)c2ccc3c(c2)OCO3)CC1 [JZL184] (first compound 0.08 µM, partner dose 1 µM) | 81.6 | 77.4 | 85 | 75.9 | 97.3 | 30.8 |
| Nc1nc(F)nc2c1ncn2[C@@H]1O[C@H](CO)[C@@H](O)[C@@H]1O [fludarabine] + O=C(Oc1ccc([N+](=O)[O-])cc1)N1CCC(C(O)(c2ccc3c(c2)OCO3)c2ccc3c(c2)OCO3)CC1 [JZL184] (first compound 0.2 µM, partner dose 1 µM) | 101 | 104 | 100 | 28.1 | 93.9 | 41 |
| Cn1sc(=O)n(Cc2ccccc2)c1=O + O=C(Oc1ccc([N+](=O)[O-])cc1)N1CCC(C(O)(c2ccc3c(c2)OCO3)c2ccc3c(c2)OCO3)CC1 [JZL184] (first compound 0.4 µM, partner dose 1 µM) | 94.6 | 77.9 | 114 | 91.7 | 95 | 89.3 |
| CCc1ccc(CCOc2ccc(CC3SC(=O)NC3=O)cc2)nc1 (centres undefined) [pioglitazone] + C/C(O)=C(\C#N)C(=O)Nc1cc(Br)ccc1Br [LFM-A13] (first compound 2 µM, partner dose 2 µM) | 93.1 | 101 | 76 | 84.2 | 101 | 104 |
| NC(=O)Nc1cc(-c2cccc(F)c2)sc1C(=O)N[C@H]1CCCNC1 + Cc1cc(SCc2sc(-c3ccc(C(F)(F)F)c(F)c3)nc2C)ccc1OCC(=O)O [GW0742] (first compound 0.02 µM, partner dose 2 µM) | 99.1 | 96.6 | 99.4 | 90.5 | 37.7 | 96.7 |
| CC1(C)CCC(c2ccc(Cl)cc2)=C(CN2CCN(c3ccc(C(=O)NS(=O)(=O)c4ccc(N[C@H](CCN5CCOCC5)CSc5ccccc5)c(S(=O)(=O)C(F)(F)F)c4)cc3)CC2)C1 + C[As](C)SC[C@H](NC(=O)CC[C@H](N)C(=O)O)C(=O)NCC(=O)O [Darinaparsin] (first compound 0.4 µM, partner dose 0.4 µM) | 98.4 | 89.8 | 15.7 | 108 | 96.3 | 80.5 |
| Cn1c(=O)n(-c2ccc(C(C)(C)C#N)cc2)c2c3cc(-c4cnc5ccccc5c4)ccc3ncc21 + Cc1cc(SCc2sc(-c3ccc(C(F)(F)F)c(F)c3)nc2C)ccc1OCC(=O)O [GW0742] (first compound 0.004 µM, partner dose 2 µM) | 95.9 | 106 | 104 | 105 | 109 | 102 |
| COc1cc([C@@H]2c3cc4c(cc3[C@@H](O[C@@H]3O[C@@H]5CO[C@@H](C)O[C@H]5[C@H](O)[C@H]3O)[C@H]3COC(=O)[C@H]23)OCO4)cc(OC)c1O [etoposide] + N.N.[Cl][Pt][Cl] [cisplatin] (first compound 0.02 µM, partner dose 1.6 µM) | 84.2 | 87.2 | 99.8 | 83.6 | 75 | 85.6 |
| OCc1c[nH]c2ccccc12 [Indole-3-carbinol] + Cc1cc(SCc2sc(-c3ccc(C(F)(F)F)c(F)c3)nc2C)ccc1OCC(=O)O [GW0742] (first compound 0.8 µM, partner dose 2 µM) | 103 | 99.1 | 95.9 | 110 | 99.2 | 118 |
| NC1(c2ccc(-c3nc4ccn5c(=O)[nH]nc5c4cc3-c3ccccc3)cc2)CCC1 + O=C(Oc1ccc([N+](=O)[O-])cc1)N1CCC(C(O)(c2ccc3c(c2)OCO3)c2ccc3c(c2)OCO3)CC1 [JZL184] (first compound 0.4 µM, partner dose 1 µM) | 81.3 | 83.4 | 98.1 | 81 | 89.5 | 84.7 |
| Cn1nnc2c(C(N)=O)ncn2c1=O [temozolomide] + C/C(O)=C(\C#N)C(=O)Nc1cc(Br)ccc1Br [LFM-A13] (first compound 2 µM, partner dose 2 µM) | 97.5 | 93.2 | 108 | 84.8 | 134 | 96.9 |
| Cc1cc(SCc2sc(-c3ccc(C(F)(F)F)c(F)c3)nc2C)ccc1OCC(=O)O + CCCCCCCCCCCC1=C(O)C(=O)C=C(O)C1=O [Embelin] (first compound 2 µM, partner dose 1.2 µM) | 103 | 114 | 95.7 | 115 | 119 | 98.9 |
| Cn1sc(=O)n(Cc2ccccc2)c1=O + N.N.[Cl][Pt][Cl] [cisplatin] (first compound 0.4 µM, partner dose 1.6 µM) | 94.4 | 85.1 | 92.4 | 88.3 | 97.8 | 101 |
| COc1ccc2c(c1)CCC1C2CCC2(C)C(NCCCCCCN3C(=O)C=CC3=O)CCC12 (centres undefined) + Cc1cc(SCc2sc(-c3ccc(C(F)(F)F)c(F)c3)nc2C)ccc1OCC(=O)O [GW0742] (first compound 0.4 µM, partner dose 2 µM) | 91.2 | 102 | 101 | 81.8 | 102 | 108 |
| Cc1cc(SCc2sc(-c3ccc(C(F)(F)F)c(F)c3)nc2C)ccc1OCC(=O)O + Oc1nc(-c2ccc(C(F)(F)F)cc2)nc2c1CSCC2 [XAV939] (first compound 2 µM, partner dose 2 µM) | 85.4 | 73.8 | 88.3 | 101 | 92.9 | 99.3 |
| COC(=O)c1sccc1S(=O)(=O)Nc1ccc(Nc2ccccc2)cc1OC + C/C(O)=C(\C#N)C(=O)Nc1cc(Br)ccc1Br [LFM-A13] (first compound 1 µM, partner dose 2 µM) | 109 | 90.5 | 90.9 | 98.2 | 98.5 | 94.5 |
| OCc1c[nH]c2ccccc12 [Indole-3-carbinol] + O=C(Oc1ccc([N+](=O)[O-])cc1)N1CCC(C(O)(c2ccc3c(c2)OCO3)c2ccc3c(c2)OCO3)CC1 [JZL184] (first compound 0.8 µM, partner dose 1 µM) | 104 | 97.8 | 102 | 89.6 | 118 | 101 |
| Nc1cccc2c1CN(C1CCC(=O)NC1=O)C2=O (centres undefined) [lenalidomide] + O=C(Oc1ccc([N+](=O)[O-])cc1)N1CCC(C(O)(c2ccc3c(c2)OCO3)c2ccc3c(c2)OCO3)CC1 [JZL184] (first compound 1 µM, partner dose 1 µM) | 107 | 95.3 | 90.9 | 92.9 | 104 | 114 |
